In patent publication US11628159B2, “Cell-protective compounds and their use” (ETH ZURICH, priority 2017, dated 2023):

Legend:
GRK2 = biological target: T1, GRK2 (Homo sapiens, UniProt P25098); assay: In vitro phosphorylation assay: GRK2-mediated phosphorylation of SRSF1 with purified proteins; assay type: biochemical
T1 construct: fused on or other part: hexahistidine tag
T1 sequence (P25098 1-669 limits assumed): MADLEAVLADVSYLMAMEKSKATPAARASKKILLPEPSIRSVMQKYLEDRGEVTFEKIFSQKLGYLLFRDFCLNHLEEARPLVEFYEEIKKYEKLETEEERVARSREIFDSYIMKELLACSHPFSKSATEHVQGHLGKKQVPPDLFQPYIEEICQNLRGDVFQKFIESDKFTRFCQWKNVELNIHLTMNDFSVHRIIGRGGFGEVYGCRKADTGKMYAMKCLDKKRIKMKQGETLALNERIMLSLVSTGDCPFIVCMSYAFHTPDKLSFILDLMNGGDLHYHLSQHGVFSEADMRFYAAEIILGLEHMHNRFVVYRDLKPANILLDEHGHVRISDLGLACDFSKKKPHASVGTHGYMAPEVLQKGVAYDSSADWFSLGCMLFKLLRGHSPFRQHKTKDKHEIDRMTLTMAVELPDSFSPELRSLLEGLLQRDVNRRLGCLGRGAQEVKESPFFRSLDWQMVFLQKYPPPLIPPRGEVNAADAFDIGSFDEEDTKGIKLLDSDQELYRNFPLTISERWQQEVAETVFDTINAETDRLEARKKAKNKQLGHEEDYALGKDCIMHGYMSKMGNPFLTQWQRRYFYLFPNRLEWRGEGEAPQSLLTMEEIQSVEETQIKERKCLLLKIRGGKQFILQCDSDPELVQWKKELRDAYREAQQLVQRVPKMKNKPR
Protocol: The GRK2-mediated phosphorylation of SRSF1 was determined with purified proteins in the presence of increasing concentrations of paroxetine or different small molecule compounds. SRSF1 phosphorylation is presented as % of control, which is the SRSF1 phosphorylation in the absence of inhibitor.
Recombinant human GRK2 protein and GRK2-S670A protein was expressed in and purified from Spodoptera frugiperda (Sf9) cells by the baculoviral expression system. […] Sf9 cells were infected with recombinant baculoviruses at an MOI of 2-3, 48 h after infection cells were harvested by centrifugation, lysed with lysis buffer (300 mM NaCl, 50 mM HEPES, pH 7.5 supplemented with 1% NP40, 1 mM PMSF and protease inhibitor cocktail) and applied to Ni-NTA chromatography. After overnight incubation at 4° C., unbound proteins were removed by washing with lysis buffer (20× column volumes) followed by 1× column volume of 30 mM imidazole-containing lysis buffer. Bound GRK2 was eluted by 300 mM imidazole in lysis buffer, desalted by PD10 column chromatograpy, supplemented with 20% glycerol and stored at −80° C. for further use. […]
Recombinant proteins were used for an in vitro phosphorylation assay with GRK2 and GRK2-S670A. […] After three washing steps with 5 ml of reaction buffer, filter-bound radioactivity was determined in a β-counter.

[1] = test system: GRK2-mediated phosphorylation of Srsf1; assay: Cardiac Srsf1 phosphorylation under basal conditions in non-transgenic B6 mice after short-term treatment; assay type: in vivo, mouse; settings: 10 mg/kg i.p., 5 h, immunoblot, relative to vehicle
Protocol: A, The GRK2-mediated phosphorylation of Srsf1 was determined by immunoblot in cardiac lysates prepared from hearts of non-transgenic B6 mice after treatment (i.p.) for 5 h with 10 mg/kg of 1-(1,3-benzodioxol-5-yl)-4-(cyclopropane-carbonyl)-3-hydroxy-2-phenyl-2H-pyrrol-5-one (“Compound-1”), 4-(1,3-benzodioxol-5-yl)pyrimidine (“Compound-4”), 1-(1,3-benzodioxol-5-ylmethyl)-5-(4-fluorophenyl)-2-methyl-pyrrole-3-carboxamide (“Compound-2”), or (4R)-N3-(1,3-benzodioxol-5-ylmethyl)-N4-[[3-(trifluoromethyl)phenyl]-methyl]pyrrolidine-3,4-dicarboxamide (“Compound-5”) relative to vehicle-treated B6 controls (“con”). […] B, Left panel: The AAC-induced cardiac p-Srsf1 content was determined in cardiac lysates from B6 mice with AAC after treatment for 7 days with 5 mg/kg/d of 1-(1,3-benzodioxol-5-yl)-4-(cyclopropane-carbonyl)-3-hydroxy-2-phenyl-2H-pyrrol-5-one (“Compound-1”) or (4R)-N3-(1,3-benzodioxol-5-ylmethyl)-N4-[[3-(trifluoromethyl)phenyl]-methyl]pyrrolidine-3,4-dicarboxamide (“Compound-5”) relative to vehicle-treated B6 controls with AAC (“AAC-con”). […] Right and lower panels: Cardiac function parameters were determined by echocardiography in B6 mice with AAC after treatment for 7 days with “Compound-1” or “Compound-5” relative to vehicle-treated B6 controls with AAC ((±s.d.; n=5 (A) and n=3 (B); Dunnett's Multiple Comparison Test vs. con (A) or AAC-con (B)).

[2] = test system: GRK2-mediated phosphorylation of SRSF1; assay: Immunoblot of SRSF1 phosphorylation (pSRSF1) in HEK (human embryonic kidney) cells; assay type: cell-based; settings: 10 microM, 60 h, relative to vehicle
Protocol: A, The GRK2-mediated phosphorylation of SRSF1/Srsf1 was determined by immunoblot in lysates from isolated neonatal cardiomyocytes from Tg-SRSF1 mice after incubation for 60 h with 10 microM of paroxetine, 1-(1,3-benzodioxol-5-yl)-4-(cyclopropane-carbonyl)-3-hydroxy-2-phenyl-2H-pyrrol-5-one (“Compound-1”) or 4-(1,3-benzodioxol-5-yl)pyrimidine (“Compound-4”) relative to vehicle-treated control (“C”) cardiomyocytes. B, Immunoblot detection of GRK2-mediated phosphorylation of SRSF1 (pSRSF1) was performed with lysates from HEK (human embryonic kidney) cells incubated for 60 h with 10 microM of 4-(1,3-benzodioxol-5-yl)pyrimidine (“Compound-4”), 1-(1,3-benzodioxol-5-ylmethyl)-5-(4-chlorophenyl)-2-methyl-pyrrole-3-carboxamide (“Compound-24”) or (4R)-N3-(1,3-benzodioxol-5-ylmethyl)-N4-[[3-(trifluoromethyl)phenyl]-methyl]pyrrolidine-3,4-dicarboxamide (“Compound-5”) relative to vehicle-treated controls (“C”).
Briefly, the hearts were dissected out from 2-3 day-old mice, atria and aorta were removed, and the hearts were transferred into sterile buffer A (137 mM NaCl, 5.36 mM KCl, 0.81 mM MgSO4, 5.55 mM dextrose, 0.44 mM KH2PO4, 0.34 mM Na2HPO4, 20 mM HEPES, 100 U/ml penicillin, 100 microg/ml streptomycin, pH 7.4). […]

B6 mice with AAC = assay: Chronic pressure overload (AAC) model, 7 days of treatment: cardiac p-Srsf1 and echocardiography; assay type: in vivo, mouse; settings: 5 mg/kg/d for 7 days
Protocol: A, The GRK2-mediated phosphorylation of Srsf1 was determined by immunoblot in cardiac lysates prepared from hearts of non-transgenic B6 mice after treatment (i.p.) for 5 h with 10 mg/kg of 1-(1,3-benzodioxol-5-yl)-4-(cyclopropane-carbonyl)-3-hydroxy-2-phenyl-2H-pyrrol-5-one (“Compound-1”), 4-(1,3-benzodioxol-5-yl)pyrimidine (“Compound-4”), 1-(1,3-benzodioxol-5-ylmethyl)-5-(4-fluorophenyl)-2-methyl-pyrrole-3-carboxamide (“Compound-2”), or (4R)-N3-(1,3-benzodioxol-5-ylmethyl)-N4-[[3-(trifluoromethyl)phenyl]-methyl]pyrrolidine-3,4-dicarboxamide (“Compound-5”) relative to vehicle-treated B6 controls (“con”). […] B, Left panel: The AAC-induced cardiac p-Srsf1 content was determined in cardiac lysates from B6 mice with AAC after treatment for 7 days with 5 mg/kg/d of 1-(1,3-benzodioxol-5-yl)-4-(cyclopropane-carbonyl)-3-hydroxy-2-phenyl-2H-pyrrol-5-one (“Compound-1”) or (4R)-N3-(1,3-benzodioxol-5-ylmethyl)-N4-[[3-(trifluoromethyl)phenyl]-methyl]pyrrolidine-3,4-dicarboxamide (“Compound-5”) relative to vehicle-treated B6 controls with AAC (“AAC-con”). […] Right and lower panels: Cardiac function parameters were determined by echocardiography in B6 mice with AAC after treatment for 7 days with “Compound-1” or “Compound-5” relative to vehicle-treated B6 controls with AAC ((±s.d.; n=5 (A) and n=3 (B); Dunnett's Multiple Comparison Test vs. con (A) or AAC-con (B)). […]

Tg-RKIP mice = assay: Paroxetine treatment of Tg-RKIP mice (heart failure phenotype); settings: 5 mg/kg body weight per day in drinking water, 8 weeks

CC(C)Cc1ccc(C(C)C(=O)O)cc1 (racemic) [Compound-6, (±)-2-(4-isobutylphenyl)propanoic acid, reference compound]
Inhibition of the in vitro phosphorylation of SRSF1 by GRK2 (GRK2; result in words): no inhibitory effect up to 1 mM

Cc1c(C(N)=O)cc(-c2ccc(F)cc2)n1Cc1ccc2c(c1)OCO2 [Compound-2, 1-(1,3-benzodioxol-5-ylmethyl)-5-(4-fluorophenyl)-2-methyl-pyrrole-3-carboxamide]
GRK2-mediated Srsf1 phosphorylation under basal conditions in the hearts of non-transgenic B6 mice [1]: decreased

O=C(NCc1ccc2c(c1)OCO2)[C@@H]1CSCC(c2ccc(F)cc2)N1 (stereo partly drawn) [Compound-3, (3R)—N-(1,3-benzodioxol-5-ylmethyl)-5-(4-fluorophenyl)thiomorpholine-3-carboxamide]
IC50 (GRK2; purified proteins, read-out: IC50 value, inhibition of GRK2-mediated SRSF1 phosphorylation): 12.9 µM

O=C(NCc1ccc2c(c1)OCO2)C1CNC[C@@H]1C(=O)NCc1cccc(C(F)(F)F)c1 (stereo partly drawn) [Compound-5, (4R)-N3-(1,3-benzodioxol-5-ylmethyl)-N4-[[3-(trifluoromethyl)phenyl]-methyl]pyrrolidine-3,4-dicarboxamide]
SRSF1 phosphorylation in human kidney cells [2]: inhibited | cardiac performance after chronic pressure overload imposed by AAC (B6 mice with AAC; echocardiography): improved | chronic pressure overload-induced cardiac p-Srsf1 content (B6 mice with AAC; relative to vehicle): retarded | GRK2-mediated Srsf1 phosphorylation under basal conditions in the hearts of non-transgenic B6 mice [1]: decreased

Cc1c(C(N)=O)cc(-c2ccc(Cl)cc2)n1Cc1ccc2c(c1)OCO2 [Compound-24, 1-(1,3-benzodioxol-5-ylmethyl)-5-(4-chlorophenyl)-2-methyl-pyrrole-3-carboxamide]
SRSF1 phosphorylation in human kidney cells [2]: inhibited

Fc1ccc([C@@H]2CCNC[C@H]2COc2ccc3c(c2)OCO3)cc1 [Paroxetine]
cardiac content of activating Srsf1 phosphorylation (Tg-RKIP mice; Tg-RKIP hearts): decreased | splicing of Camk2d isoforms B/C (Tg-RKIP mice; Tg-RKIP hearts): decreased | development of myocardial necrosis and signs of heart failure (Tg-RKIP mice; Tg-RKIP mice): retarded
